Hit rate of the full screen: of about 370,000 compounds, about 150 (0.041%) were called active. Inconclusive results, whose numbers are uncertain, are shown with a selection of clear calls. Calls follow the shape of the dose curve; as a rule, active = well fitted inhibition curve with a large enough effect; inconclusive = small, poorly fitted or top-dose-only effect; inactive = flat fitted curve, though single readings scatter. No potency is given beside an inconclusive call; the fits are too rough.
Molecular target: Beta-lactamase (Escherichia coli (strain K12)) (UniProt P00811)
Experiment: qHTS Inhibitors of AmpC Beta-Lactamase (assay with detergent); also: nearly all actives have a fitted effect of over 25% in size;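 as to activity change, negative = inhibition: 0% = no-compound wells and -100% = no-enzyme wells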
Conditions: AmpC hydrolysis of nitrocefin, absorbance 480 nm, 0.01% Triton; activity change, negative = inhibition: at 114 µM (top of the series)
Method in brief: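 AmpC (5.3 nM in the dispensed reagent) in 20 mM phosphate pH 7.0 with 0.01% (detergent screen) or 0.0001% Triton X-100 was preincubated with compounds for 15 min at room temperature. Nitrocefin was then added from an 800 uM solution, and hydrolysis was followed at 480 nm.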
Potency is read from the fitted curve at half-maximal effect; tags tell the direction and shape of the fitted curve.

Sequence of UniProt P00811 (P00811 whole entry, looked up): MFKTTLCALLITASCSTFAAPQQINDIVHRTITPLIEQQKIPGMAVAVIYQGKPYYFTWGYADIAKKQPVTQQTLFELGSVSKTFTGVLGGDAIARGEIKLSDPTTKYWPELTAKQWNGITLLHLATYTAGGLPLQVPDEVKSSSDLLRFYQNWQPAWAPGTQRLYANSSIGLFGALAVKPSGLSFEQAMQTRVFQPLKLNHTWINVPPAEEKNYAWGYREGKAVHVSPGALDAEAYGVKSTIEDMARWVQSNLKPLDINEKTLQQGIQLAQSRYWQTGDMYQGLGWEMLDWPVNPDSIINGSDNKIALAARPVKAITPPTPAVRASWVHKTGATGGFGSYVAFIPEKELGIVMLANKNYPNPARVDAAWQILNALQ

SMILES | activity change, negative = inhibition | Potency
CCN(CC)c1ccc(C(=O)n2cnc3ccccc32)cc1 | inactive: -16.5% | –
CSc1nc(O)c(/C=C2\C=Nc3ccccc32)[nH]1 | inactive: 1.7% | –
COc1ccc(-n2cccc2/C=C2\C(=N)N3N=C(C(C)C)SC3=NC2=O)cc1 | – | inconclusive [inhibitor, full curve, poor fit]
COc1ccc(CN2CCCCC2c2cccnc2)cc1C (configuration not stated) | – | inconclusive [inhibitor, full curve, poor fit]
CC(C)CN(C(=O)CN(C)S(=O)(=O)c1ccc(Cl)cc1)C1CCS(=O)(=O)C1 (configuration not stated) | inactive: 1.19% | –
Cn1cccc1C(=O)NCCc1ccccc1 | – | inconclusive [inhibitor, full curve]
O=C(O)c1cc(-c2ccccc2)nc(-c2ccccc2)c1 | – | inconclusive [inhibitor, single point]
C=CCn1cccc(C(=O)Nc2ccc(F)cc2)c1=O | inactive: 0.202% | –
O=C(NCCCN1CCCC1=O)Nc1ccccc1F | inactive: 3.32% | –
CCOC(=O)c1cnn(-c2nc(OCC)cc(OCC)n2)c1C | – | inconclusive [inhibitor, partial curve]
COC(=O)Cn1c(=NC(=O)c2ccc(OC)c(OC)c2)sc2cc(OC)ccc21 | – | inconclusive [inhibitor, partial curve]
O=C(CCc1ccc(S(=O)(=O)N2CCOCC2)cc1)N1CCc2ccccc2C1 | – | inconclusive [inhibitor, full curve, poor fit]
COc1cc(C(=O)NC(c2ccccc2)c2ccccc2)cc(Cl)c1OC | – | inconclusive [inhibitor, single point]
CCOc1ccc(OCC)c(NC(=O)CN(C)S(=O)(=O)c2ccc3[nH]c(=O)oc3c2)c1 | inactive: 13.2% | –
Clc1cccc(Cl)c1CSc1nnc(CN2CCOCC2)n1-c1ccccc1 | – | inconclusive [inhibitor, full curve, poor fit]
NC(=O)c1ccccc1NC(=O)CCCc1ccccc1 | inactive: -12.2% | –
COc1ccc(-c2nnn(CC(=O)N3CCN(c4ccccc4OC)CC3)n2)cc1 | – | inconclusive [inhibitor, partial curve, poor fit]
O=C(COc1ccc(F)cc1)NC1CC1 | – | inconclusive [inhibitor, partial curve, poor fit]
CCN(CC)c1ccc(N=Nc2nn(C)c(C)c2[N+](=O)[O-])cc1 | – | inconclusive [inhibitor, full curve, poor fit]
COc1ccc(C(=O)NC(=S)NCC2CCCO2)cc1 (configuration not stated) | – | inconclusive [inhibitor, partial curve, poor fit]
NC(=O)c1ccc[n+](CC(=O)c2ccc(NC(=O)c3ccccc3)cc2)c1 | inactive: -16.7% | –
Cn1c2c(c(=O)n(C)c1=O)C(c1ccc(F)cc1)C(C#N)=C(N)O2 (configuration not stated) | – | inconclusive [inhibitor, full curve]
O=C(N/N=C\c1ccco1)c1cncc(Br)c1 | inactive: 3.58% | –
OCC1CCCN(c2ncnc3scc(-c4ccccc4)c23)C1 (configuration not stated) | inactive: 4.14% | –

SMILES | activity change, negative = inhibition | Potency
CNC(C(=O)c1ccccc1)C(OC)c1ccc(C)cc1 (configuration not stated) | – | inconclusive [inhibitor, full curve, poor fit]
O=C(Nc1ccc(-c2csc(-c3ccccc3)n2)cc1)c1ccccc1Cl | inactive: -0.115% | –
COc1ccc(Cn2c(C3CC3)nc3ccc(NC(=O)c4ccco4)cc3c2=O)cc1 | – | inconclusive [inhibitor, full curve]
Cc1ccc(NC(=O)Cn2nc(C)c3nn(-c4ccc(Cl)cc4)c(C)c3c2=O)cc1F | inactive: -4.99% | –
COc1ccc(C(=O)c2c[nH]c(C(=O)NCCCn3ccnc3)c2)cc1 | – | inconclusive [inhibitor, full curve, poor fit]
O=C(CSc1ccc2nnc(-c3ccccn3)n2n1)NCC1CCCO1 (configuration not stated) | – | inconclusive [inhibitor, single point]
O=C(CN1C(=O)NC2(CCCC2)C1=O)Nc1cc(C(F)(F)F)ccc1N1CCCCC1 | – | inconclusive [inhibitor, full curve]
Cc1noc(C)c1-c1ccc2ncnc(NCc3cccc(-c4ccccc4)c3)c2c1 | – | inconclusive [inhibitor, full curve, poor fit]
O=C(COc1ccccc1)c1cn(CC(=O)N2CCOCC2)c2ccccc12 | – | inconclusive [inhibitor, full curve, poor fit]
COc1ccc(OC)c(CN2CCSCC2)c1 | – | inconclusive [inhibitor, partial curve, poor fit]
NC(=O)COC(=O)c1ccc(-c2ccccc2)cc1 | inactive: -3.06% | –
O=C(CN1CCN(c2ccccc2)CC1)Nc1ccc2c(c1)OCCO2 | – | inconclusive [inhibitor, full curve]
Cc1noc(N)c1C(=O)Nc1ccc(F)cc1 | – | inconclusive [inhibitor, partial curve]
CCN(CC(=O)NCc1cccs1)C(=O)c1cc(S(=O)(=O)NCc2ccccc2)ccc1C | – | inconclusive [inhibitor, partial curve]
Cc1ccc(NC(=O)CCN2CCC(C(N)=O)CC2)cc1 | – | inconclusive [inhibitor, full curve, poor fit]
O=C(Nc1cccc(Cl)c1)N1CCN(C2c3ccccc3-c3ccccc32)CC1 | inactive: 11.2% | –
CCOc1ncccc1C(=O)Nc1ccc(S(=O)(=O)N2CCCC2)cc1 | – | inconclusive [inhibitor, full curve, poor fit]
Cc1ccc(NC(C)C(=O)N/N=C/c2ccc([N+](=O)[O-])s2)cc1 (configuration not stated) | – | inconclusive [inhibitor, full curve, poor fit]
C=C(C)CSc1cc(C)nc2c(-c3ccccc3)c(C)nn12 | inactive: 9.34% | –
Cc1ccccc1NCC(=O)N/N=C/c1ccc([N+](=O)[O-])cc1 | – | inconclusive [inhibitor, partial curve, poor fit]
CCN(CC)C(=O)c1[nH]cnc1C(=O)NCC(=O)OCc1ccccc1 | inactive: -6.25% | –
O=C(CCSc1ccccc1Cl)NNC(=O)c1ccncc1 | – | inconclusive [inhibitor, single point]
N#Cc1ccccc1Cn1c(=O)n(Cc2ccc(C(=O)NCc3ccco3)cc2)c(=O)c2ccccc21 | inactive: 1.83% | –
COc1ccc(/C(C)=N/NC(=S)NCc2ccco2)cc1 | – | inconclusive [inhibitor, partial curve]

SMILES | activity change, negative = inhibition | Potency
Cc1ccc(C)c(N2CCN(S(=O)(=O)c3cc(C(=O)Nc4ccccc4C(F)(F)F)ccc3F)CC2)c1 | inactive: -2.6% | –
COc1ccc(-n2c(Cc3cccn3C)nnc2SCC(=O)Nc2cc(C)cc(C)c2)cc1 | – | inconclusive [inhibitor, partial curve, poor fit]
CCOC(=O)c1ccc(NC(=O)C(=O)NCc2ccccn2)cc1 | – | inconclusive [inhibitor, single point]
CCOC(=O)c1cc2sccc2n1CC(=O)c1ccc2c(c1)OCCO2 | inactive: -9.56% | –
NC(=O)c1ccc(NCC2CCCO2)c([N+](=O)[O-])c1 (configuration not stated) | inactive: -5% | –
CCc1nnc(NC(=O)CSc2nnc(CNc3cccc(C)c3)n2-c2ccccc2)s1 | – | inconclusive [inhibitor, full curve, poor fit]
COc1cc2c(cc1OC)C(C)N(C(=O)Cn1ncc3c1-c1cc(C)ccc1OC3)CC2 (configuration not stated) | – | inconclusive [inhibitor, full curve]
COc1cccc(-c2nnc(SCC3CNC(=O)O3)n2-c2ccc(Cl)cc2)c1 (configuration not stated) | inactive: -6.75% | –
Cc1cccn2c(=O)c(C=Nc3ccccc3)c(NCCO)nc12 | – | inconclusive [inhibitor, partial curve, poor fit]
O=C(C1=C(c2ccccc2)C(=O)c2ccccc2C1=O)c1ccccc1 | – | inconclusive [inhibitor, full curve, poor fit]
CCC1Oc2ccc(C)cc2N(CC(=O)NC2CCCCC2)C1=O (configuration not stated) | inactive: -4.23% | –
CCOC(=O)c1c(NC(=O)c2ccc(S(=O)(=O)N(C)CC3CCCO3)cc2)sc2c1CCN(C)C2 (configuration not stated) | inactive: -5.35% | –
CNc1nc(C)nc(N/N=C/c2ccccc2)n1 | inactive: 3.95% | –
COc1ccccc1CNC(=O)c1cccc(C)c1[N+](=O)[O-] | – | inconclusive [inhibitor, full curve, poor fit]
CCOC(=O)N1CCN(Cc2nc(CC3CC3)no2)CC1 | inactive: 3.48% | –
Cc1ccc(-c2nc(NC(=O)CSc3nnc(C)s3)ns2)cc1 | inactive: -2.23% | –
COc1cccc(-c2cc(C(=O)NCc3ccc(F)cc3)no2)c1 | inactive: -3% | –
Cn1c(=O)c2[nH]c(CN3CCN(Cc4ccccc4)CC3)nc2n(C)c1=O | – | inconclusive [inhibitor, partial curve, poor fit]
O=C(Nc1ccc(-c2nc3cccnc3s2)cc1)c1cccnc1Cl | inactive: 8.15% | –
Cc1cc2nc(-c3ccc(NC(=O)c4cccnc4)cc3)oc2cc1C | – | inconclusive [inhibitor, full curve, poor fit]
COc1cc(C(=O)NCCc2sc(-c3cccc(F)c3)nc2C)cc(OC)c1OC | inactive: 9.85% | –
Cc1cc(=O)[nH]c(SCc2cc(Cl)ccc2OC(F)F)n1 | – | inconclusive [inhibitor, partial curve, poor fit]
CC1CCC(NC(=O)CSc2ccc(S(=O)(=O)N(C)C)cn2)CC1 (configuration not stated) | – | inconclusive [inhibitor, full curve, poor fit]
CN(C)c1ccc(/C=C(/NC(=O)c2ccccc2)C(=O)NCCCn2ccnc2)cc1 | inactive: -3.96% | –
